Results reported in PubChem BioAssay AID686979 (National Center for Advancing Translational Sciences (NCATS), 2013).
About 50,000 (12%) of roughly 420,000 compounds were called active. Inconclusive means that the source gave no clear call. Such entries were picked first, then a sample of the others. Calls follow the shape of the dose curve; as a rule, active = well fitted inhibition curve with a large enough effect; inconclusive = small, poorly fitted or top-dose-only effect; inactive = flat fitted curve, though single readings scatter. Potencies of inconclusive entries are left out as doubtful fits.

Test: qHTS for Inhibitors of human tyrosyl-DNA phosphodiesterase 1 (TDP1): qHTS in cells in presence of CPT; also: nearly all actives have a fitted effect of over 55% in size
Conditions: chicken DT40 Tdp1-/-;hTDP1 cells + 20 nM CPT, ATP luminescence, 48 h; series mostly up to 46.2 µM
How it was run: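 Cell growth measured by CellTiter-Glo luminescence after a minimum 48 h, 37 C compound exposure with 20 nM CPT in Tdp1-knockout DT40 cells stably expressing hTDP1, seeded 400/well; qHTS titration format.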
Potency is read from the fitted curve at half-maximal effect; tags tell the direction and shape of the fitted curve.

SMILES	Potency
Cc1ccc(-c2c3c(=O)n(C)c(=O)n(C)c3cn2Cc2ccccc2)cc1	inconclusive [inhibitor, single point]
COc1ccc(NC(=O)c2ccc3oc(=O)c(S(=O)(=O)c4ccc(F)cc4)cc3c2)cc1OC	inactive
CN(C=[N+](C)C)c1cccc2c1C(=O)c1ccccc1C2=O	inconclusive [inhibitor, single point]
Cc1nnc(NCCc2ccccc2)c2ccccc12	inconclusive [inhibitor, single point]
COc1ccc(OCc2ccc(C(=O)O)cc2)cc1	inactive
COc1cc(N)c(N)cc1OC	inconclusive [inhibitor, partial curve]
COc1ccc(C(=O)N2CC(=O)Nc3ccc(Br)cc3C2c2ccc(F)cc2)cc1OC (stereo not given)	inconclusive [inhibitor, single point]
COC(=O)c1cnc(Nc2cc(C)ccc2OC)c2ccccc12	inactive
CCc1ccc(NC(=O)c2sc(-n3nc(C)c(CCC(C)C)c3C)nc2C)cc1	inconclusive [inhibitor, single point]
CCN(CC)c1ccc(/C=C/c2ccc3ccc(OC)cc3[n+]2CC)cc1	active: 0.0651 µM
O=C(C[C@H]1C/C=C\C[C@H](NC(=O)OCC2c3ccccc3-c3ccccc32)C(=O)O[C@H](c2ccccc2)CNC1=O)N[C@H](CO)Cc1ccccc1	active: 3.26 µM
Nc1nonc1-n1nnc(C(=O)N/N=C/c2cccnc2)c1-c1cccs1	inactive
CCn1cc2nc(SCC(=O)Nc3cc(OC)ccc3OC)n(Cc3ccc(Cl)cc3)c(=O)c2n1	active: 11.6 µM
Cc1ccc(-n2c(SCC(=O)N3CCc4ccccc43)nc3c([nH]c4ccccc43)c2=O)cc1	inconclusive [inhibitor, full curve, poor fit]
CN(C)c1ccc(C(=S)N2CCN(Cc3ccccc3)CC2)cc1	inconclusive [inhibitor, single point]
COc1cc2c(Cc3ccccc3)cncc2cc1O	inconclusive [inhibitor, single point]
COc1ccccc1N(C(=O)c1ccco1)C(C(=O)NC1CCCC1)c1ccncc1 (stereo not given)	inactive
CCOc1ccccc1NC(=O)c1ccc2c(c1)CCN2S(C)(=O)=O	inconclusive [inhibitor, single point]
CC(CCc1ccccc1)NC(=O)c1ccccc1Cl (stereo not given)	inactive
COc1ccc(NC(=O)C2CCCN(C(=O)c3ccc(Cl)cc3)C2)cc1S(=O)(=O)N(C)C (stereo not given)	inconclusive [inhibitor, single point]
CCS(=O)(=O)N1CCc2cc(C(=O)Nc3cc([N+](=O)[O-])ccc3C)ccc21	inconclusive [inhibitor, partial curve]
COC(=O)C1CCCCN1Cc1ccc2c(c1)CN(Cc1cc(OC)c3c(c1)OCO3)CCO2 (stereo not given)	inconclusive [inhibitor, single point]
Cc1[nH]n(-c2ccccc2)c(=O)c1Sc1ccc(Cl)cc1	inconclusive [inhibitor, partial curve]

SMILES	Potency
CC1CC(=O)Nc2ccccc2N1S(=O)(=O)c1cccc(Cl)c1 (stereo not given)	inconclusive [inhibitor, partial curve, poor fit]
COc1ccc(N2CC(C(=O)N[C@@H](C)C(=O)NC3CCCCC3)CC2=O)cc1 (stereo not given in full)	inactive
COc1ccc(NC(=O)c2cc(-c3ccccc3)nc3c2cnn3C(C)C)c(OC)c1	inconclusive [inhibitor, single point]
Cc1ccc(C(=O)Nc2nc(=O)n(C(=O)CC(C)C)s2)cc1	inactive
O=C(CNc1cccc2ccccc12)N/N=C/C(Br)=C/c1ccccc1	active: 11.6 µM
CCCC(=O)Nc1nnc(SCc2cc(=O)n3ccccc3n2)s1	inconclusive [inhibitor, single point]
CC(C)(C)CC(C)(C)c1ccc(O)c(Cc2ccc(Cl)cc2Cl)c1	inconclusive [inhibitor, single point]
COc1ccccc1CCNC(=O)Cn1ccc2cc(S(=O)(=O)N3CCCCC3)ccc21	inconclusive [inhibitor, single point]
O=C(CSc1ccc2nnc(-c3cccc(F)c3)n2n1)N1CCCc2ccccc21	inconclusive [inhibitor, partial curve, poor fit]
S=c1sc2c(Cl)ncnc2n1-c1ccccc1	active: 16.4 µM
O=C(CCn1c(=O)c2cccn2c2cccnc21)N1CCN(c2ccc(F)cc2)CC1	active: 14.6 µM
CCn1cc(C2=NOC(C(=O)Nc3cccc(C(C)=O)c3)C2)c(C)n1 (stereo not given)	active: 16.4 µM
CC1CC1C(=O)Nc1ccc(S(=O)(=O)N2CCCCC2)cc1 (stereo not given)	active: 23.1 µM
COC(=O)CCC(C)C1CCC2C3CCC4CC(O)CCC4(C)C3=CC(=O)C12C (stereo not given)	inconclusive [inhibitor, single point]
O=C(Nc1cccc2nsnc12)c1ccc2c(c1)OCCO2	inconclusive [inhibitor, single point]
O=C(Cc1ccc(Cl)cc1)NCCS(=O)(=O)N1CCN(c2ccccc2F)CC1	active: 5.17 µM
CCN(CC)Cc1c(O)ccc2c(=O)c(-c3ccc4c(c3)OCCO4)coc12	active: 3.26 µM
CCCNC(=O)NC(=O)COC(=O)c1ccc(S(=O)(=O)N(C)c2ccccc2OC)cc1	active: 29.1 µM
Cc1c(-n2cccc2C=O)cccc1[N+](=O)[O-]	inactive
COc1cc(F)ccc1-c1csc(C(C)(O)c2ccccc2)n1 (stereo not given)	inconclusive [inhibitor, single point]
CC(=O)c1ccc2c(c1)C1C=CCC1C(c1ccc(S(=O)(=O)N3CCOCC3)cc1)N2 (stereo not given)	inactive
Cc1ccc(S(=O)(=O)N2CCC(c3nc4c(nnn4Cc4ccccc4)c(=O)[nH]3)CC2)cc1	inconclusive [inhibitor, single point]
